Data reported in PubChem BioAssay AID504332 (National Center for Advancing Translational Sciences (NCATS), 2011).
The whole screen tested about 350,000 compounds, of which about 31,000 (8.9%) were called active. This list was built around the results that the source calls inconclusive (neither active nor inactive); the mix of calls is not that of the screen. Calls come from the whole dose curve; as a rule, active = well fitted inhibition curve with a large enough effect; inconclusive = small, poorly fitted or top-dose-only effect; inactive = no such curve, though single readings can be large or run the other way. Where the call is inconclusive, the potency comes from a doubtful curve fit.

Molecular target: Histone-lysine N-methyltransferase EHMT2 (Homo sapiens) (UniProt Q96KQ7)
Chain of UniProt Q96KQ7 (Q96KQ7 whole entry, looked up): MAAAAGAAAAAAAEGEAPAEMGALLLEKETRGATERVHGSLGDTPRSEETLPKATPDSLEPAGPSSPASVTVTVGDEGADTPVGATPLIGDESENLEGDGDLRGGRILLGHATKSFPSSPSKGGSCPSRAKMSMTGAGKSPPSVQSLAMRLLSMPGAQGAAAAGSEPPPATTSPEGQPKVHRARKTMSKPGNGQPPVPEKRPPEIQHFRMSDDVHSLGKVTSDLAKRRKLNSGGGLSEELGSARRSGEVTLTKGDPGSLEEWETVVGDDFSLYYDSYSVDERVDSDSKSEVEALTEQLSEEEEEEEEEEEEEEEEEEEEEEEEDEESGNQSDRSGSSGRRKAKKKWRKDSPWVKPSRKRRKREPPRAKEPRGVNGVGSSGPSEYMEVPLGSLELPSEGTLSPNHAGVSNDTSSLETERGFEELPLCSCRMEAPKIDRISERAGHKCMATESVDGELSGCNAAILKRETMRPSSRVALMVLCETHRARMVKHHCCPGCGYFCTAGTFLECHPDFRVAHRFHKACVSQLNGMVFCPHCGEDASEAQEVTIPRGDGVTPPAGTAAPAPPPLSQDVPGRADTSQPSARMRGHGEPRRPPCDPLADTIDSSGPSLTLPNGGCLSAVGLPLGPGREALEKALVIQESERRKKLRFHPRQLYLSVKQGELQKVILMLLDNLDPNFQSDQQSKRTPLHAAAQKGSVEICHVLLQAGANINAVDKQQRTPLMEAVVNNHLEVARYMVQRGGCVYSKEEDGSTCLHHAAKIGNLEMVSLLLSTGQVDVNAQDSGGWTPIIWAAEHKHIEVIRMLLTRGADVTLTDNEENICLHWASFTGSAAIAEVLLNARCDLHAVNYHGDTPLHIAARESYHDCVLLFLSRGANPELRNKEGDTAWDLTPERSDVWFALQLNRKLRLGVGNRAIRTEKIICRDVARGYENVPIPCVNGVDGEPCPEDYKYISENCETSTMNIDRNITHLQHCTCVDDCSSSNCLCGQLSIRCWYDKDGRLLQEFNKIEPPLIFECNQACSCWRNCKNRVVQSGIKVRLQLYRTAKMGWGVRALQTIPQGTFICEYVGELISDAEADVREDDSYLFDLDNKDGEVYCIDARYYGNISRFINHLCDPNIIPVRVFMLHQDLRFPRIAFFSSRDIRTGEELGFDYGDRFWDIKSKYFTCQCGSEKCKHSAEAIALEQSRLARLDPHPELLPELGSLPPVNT
Experiment: qHTS Assay for Inhibitors of Histone Lysine Methyltransferase G9a; note: nearly all actives have a fitted effect of over 75% in size
Conditions: G9a H3K9 monomethylation, AlphaScreen, 2 h; activity, negative = inhibition: at 59 µM (top of the series) unless noted
Method in brief: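 G9a (20 nM) preincubated 15 min RT with compounds, then 500 nM biotinylated H3K9 peptide and 20 uM SAM added; 2 h RT reaction. Monomethyl-H3K9 product detected by AlphaScreen with anti-H3K9me1 antibody, streptavidin donor and anti-rabbit IgG acceptor beads.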
% is set by controls: 0 for no effect and ±100 for the full control effect; potency is the fitted concentration of half-maximal effect; tags give direction and shape of the fitted curve.

Row | SMILES | Potency | activity, negative = inhibition
1 | FC(F)(F)C12CC(c3ccccc3)=NCCN1CCN2 (centres undefined) | inconclusive: 100 µM [inhibitor, single point] | –
2 | N=c1n(CCN2CCCCC2)c2ccccc2n1CC(O)COc1ccc(Cl)cc1Cl (centres undefined) | inconclusive: 14.1 µM [inhibitor, partial curve] | –
3 | CCN(CCNC(=O)Nc1ccc(Cl)cc1)c1ccccc1 | active: 50.1 µM | –
4 | S=C(Nc1ccc(Cl)cc1)c1sc(N2CCCCC2)nc1N1CCOCC1 | inconclusive: 28.2 µM [inhibitor, single point] | –
5 | COc1ccc(N=C2NN=C(c3c(C)[nH]c4ccccc34)CS2)cc1 | active: 8.91 µM | –
6 | Cc1ccc2c(=O)cc(C(=O)N(Cc3ccc(N(C)C)cc3)C3CCS(=O)(=O)C3)oc2c1 (centres undefined) | inconclusive: 10 µM [inhibitor, partial curve] | –
7 | O=C(NCCc1ccccc1)c1n[nH]c(=O)c2ccccc12 | inconclusive: 89.1 µM [inhibitor, single point] | –
8 | COc1ccc(-c2nn(C)c(=O)c3ccccc23)cc1CNC(=O)c1ccco1 | inconclusive: 31.6 µM [inhibitor, single point] | –
9 | COc1ccc(OC)c(Nc2nc(NCc3ccco3)c3ccccc3n2)c1 | inconclusive: 35.5 µM [inhibitor, single point] | –
10 | O=C(O)CS(=O)(=O)c1ccc(Oc2ccc(S(=O)(=O)CC(=O)O)cc2)cc1 | inconclusive: 89.1 µM [inhibitor, single point] | –
11 | NC1=NC2(CCCCC2)N(c2ccc(F)cc2F)C(N)=N1 | inconclusive: 89.1 µM [inhibitor, single point] | –
12 | C=CCNC(=O)/C(=C/c1cccc([N+](=O)[O-])c1)NC(=O)c1ccccc1 | inactive | –
13 | C=CCn1c(COc2ccc(Cl)cc2)nnc1SCc1ccc(C#N)cc1 | active: 28.2 µM | –
14 | CCCCc1cc(=O)oc2c(CN3CCN(C)CC3)c(O)ccc12 | inconclusive: 89.1 µM [inhibitor, single point] | –
15 | O=C(COC(=O)c1cncc(Br)c1)NC1CCCCC1 | inconclusive: 63.1 µM [inhibitor, partial curve, poor fit] | –
16 | CCc1cccc(C)c1NC(=O)CSc1nc2ccccc2nc1N1CCOCC1 | inactive | –
17 | O=c1[nH]c(=O)n(Cc2ccco2)c2c1C(C(F)(F)F)(C(F)(F)F)N=C(c1ccc(F)cc1)N2 | inconclusive: 3.55 µM [inhibitor, partial curve, poor fit] | –
18 | CCCC1=NN(c2ccc([N+](=O)[O-])cc2)C(=O)/C1=C\N(C)C | inconclusive: 20 µM [inhibitor, single point] | –
19 | O=C(O)c1ccccc1N=N/C(=N/Nc1cc(S(=O)(=O)O)ccc1O)c1ccccc1 | inconclusive: 8.91 µM [inhibitor, single point] | –
20 | C=CCn1c(C23CC4CC(CC(C4)C2)C3)n[nH]c1=S | active: 3.16 µM | –
21 | O=C(NCCc1nc2ccccc2n1CCCOc1ccc(Cl)cc1)C1CCCCC1 | inactive | –
22 | COc1ccc(NC(=S)N(CCc2ccc(OC)c(OC)c2)Cc2ccccn2)cc1 | inconclusive: 44.7 µM [inhibitor, partial curve] | –
23 | c1ccc2c(c1)CCN(C1CCCCC1)C2 | active: 20 µM | –

Row | SMILES | Potency | activity, negative = inhibition
24 | O=C(O)c1ccc(NC(=S)NC(=O)c2ccc(-c3ccccc3)cc2)cc1 | active: 17.8 µM | –
25 | CC(=O)/C(N=Nc1ccc2c(c1)OCO2)=C(\C)O | inactive | –
26 | CCN(CC)CCOC(=O)c1ccc(NC(=O)CCCN2C(=O)S/C(=C/c3ccc(OC)cc3)C2=S)cc1 | active: 39.8 µM | –
27 | Cc1ccc(S(=O)(=O)Nc2ccc(N3CCOCC3)nc2)cc1 | inconclusive: 50.1 µM [inhibitor, partial curve] | –
28 | CCOc1ccc(N2CSC(=S)N(c3ccc(OCC)cc3)C2)cc1 | inactive | –
29 | CCOc1ccc(CCNC(=O)Cn2nc(CC)n3c(cc4sccc43)c2=O)cc1 | inactive | –
30 | COC(=O)/C(=C/c1cn(C(C)=O)c2ccccc12)[N+](=O)[O-] | inconclusive: 39.8 µM [inhibitor, partial curve, poor fit] | –
31 | CC(=O)N1CCN(C(=O)c2cc(S(=O)(=O)N3CCCCC3)ccc2Cl)CC1 | inactive | –
32 | Fc1ccc(Cn2c(-c3cccc(Br)c3)nc3ccccc32)cc1 | inactive | –
33 | C=CCC1(CC=C)CCCN1C(=O)CC1C(=O)NCCN1Cc1cc(OC)cc(OC)c1 (centres undefined) | inconclusive: 56.2 µM [inhibitor, partial curve, poor fit] | –
34 | CCN(c1ccc(NC(=O)CCNC(=O)c2ccco2)cc1)C(C)C | active: 5.01 µM | –
35 | CCN1C(=O)/C(=C/c2ccc(C)s2)NC1=S | active: 12.6 µM | –
36 | CCC(C(=O)NCc1ccccc1Cl)n1nc(C)c2sc3ccccc3c2c1=O (centres undefined) | inactive | –
37 | CSc1ccc(/C=C2/C(C)=C(CC(=O)O)c3cc(F)ccc32)cc1 | inconclusive: 15.8 µM [inhibitor, partial curve] | –
38 | O=C1CSC(=S)N1N=C1CCCCCC1 | inconclusive: 3.16 µM [inhibitor, partial curve, poor fit] | –
39 | CN(C(=O)c1ccc(NC(=O)Cc2cccc(NC(=O)C3CCN(C(=O)C4CCCC4)CC3)c2)cc1)C1CCCC1 | – | inactive: 1.81% [at 0.501 µM]
40 | Cc1cccc(NC(=O)c2sc3nc(-c4ccccc4)cn3c2C)n1 | – | inconclusive: -87.6% [inhibitor]
41 | Cc1cccc(NC(=O)CSc2nccn2-c2cccc(Cl)c2)c1C | inconclusive: 22.4 µM [inhibitor, single point] | –
42 | Cc1cccc(C2=NN(c3ccccc3)[C@@H](C(=O)N3CCOC3=O)[C@@H]2c2ccc([N+](=O)[O-])cc2)c1 | inconclusive: 14.1 µM [inhibitor, partial curve] | –
43 | CC(=O)c1cccc(NC(=O)c2ccc(Br)o2)c1 | inconclusive: 89.1 µM [inhibitor, single point] | –
44 | CC(C)c1ccc(NCCC(=O)c2cccs2)cc1 | inconclusive: 39.8 µM [inhibitor, single point] | –
45 | O=c1cc(-c2ccccc2)n2c(SCc3cccc([N+](=O)[O-])c3)nnc2[nH]1 | inconclusive: 3.55 µM [inhibitor, partial curve, poor fit] | –
46 | Brc1ccc(-c2csc(/N=C/N3CCCC3)n2)cc1 | inconclusive: 44.7 µM [inhibitor, partial curve] | –

Row | SMILES | Potency | activity, negative = inhibition
47 | O=C(NCCCO)c1ccc2[nH]c3ccccc3c2c1 | inactive | –
48 | Cc1ccc(C(=O)c2c(NC(=O)CSc3nnc(N)s3)sc3c2CCCC3)cc1 | inconclusive: 39.8 µM [inhibitor, single point] | –
49 | CCCOc1ccc(C2c3c(oc4cc(C)c(C)cc4c3=O)C(=O)N2CCCN2CCOCC2)cc1 (centres undefined) | inconclusive: 50.1 µM [inhibitor, partial curve, poor fit] | –
50 | Cc1cccc(C)c1NC(=O)CCS(=O)(=O)c1cccc2nsnc12 | inconclusive: 3.16 µM [inhibitor, single point] | –
51 | COc1cccc(C(=O)NN2C(=O)C3C4C=CC(O4)C3C2=O)c1 (centres undefined) | inconclusive: 7.08 µM [inhibitor, full curve, poor fit] | –
52 | CCOC(=O)CN1C(=O)c2cccnc2Oc2ccccc21 | inactive | –
53 | CCOC(=O)Cn1cncc1-c1ccc([N+](=O)[O-])cc1 | inconclusive: 0.282 µM [inhibitor, full curve, poor fit] | –
54 | O=C(CCCN1C(=O)/C(=C\c2ccccc2)SC1=S)Nc1ccc(C(=O)O)cc1 | inconclusive: 89.1 µM [inhibitor, single point] | –
55 | COCCOC(=O)c1sc2nc[nH]c(=O)c2c1C | inconclusive: 44.7 µM [inhibitor, partial curve, poor fit] | –
56 | O=C(O)CCSc1nnc(CNc2ccc(Cl)cc2)n1Cc1ccccc1 | inconclusive: 100 µM [inhibitor, single point] | –
57 | COc1ccc(S(=O)(=O)N(C(C)=O)c2ccc(OC(C)=O)c3ccccc23)cc1[N+](=O)[O-] | active: 79.4 µM | –
58 | O=C(Cn1nnc(-c2ccccc2NC(=O)c2ccccc2)n1)Nc1ccc2c(c1)OCCO2 | inconclusive: 56.2 µM [inhibitor, partial curve, poor fit] | –
59 | CN(C)C(=O)COC(=O)c1ccc(S(=O)(=O)NCc2ccco2)cc1 | inconclusive: 50.1 µM [inhibitor, partial curve] | –
60 | Cc1ccc(NC(=S)Nc2ccc(C(C)C)cc2)cc1S(=O)(=O)N1CCCCCC1 | active: 44.7 µM | –
61 | COc1ccc(Cl)cc1NC(=O)CN1CCN(S(=O)(=O)N2CCCCC2)CC1 | inactive | –
62 | CCc1ccccc1Nc1nc2ccccc2n2cnnc12 | inactive | –
63 | Cc1ccc(Nc2nnc(SCc3nc4ccccc4c(=O)[nH]3)s2)cc1 | – | inconclusive: -56.2% [inhibitor]
64 | NS(=O)(=O)c1cccc(NC(=O)Cn2cc(C(F)(F)F)cc(Cl)c2=O)c1 | inconclusive: 50.1 µM [inhibitor, partial curve, poor fit] | –
65 | CCC(=O)NC(=S)NNC(=O)c1ccc([N+](=O)[O-])cc1 | inconclusive: 8.91 µM [inhibitor, partial curve, poor fit] | –
66 | CC(C)(C)c1cc(C(=O)NNS(=O)(=O)c2ccccc2)n[nH]1 | inactive | –
67 | CC1CCCCN1C(=O)CCc1nnc(Cc2c[nH]c3ccccc23)o1 (centres undefined) | inconclusive: 50.1 µM [inhibitor, partial curve, poor fit] | –
68 | Cc1ccc(-c2nn(-c3ccccc3)cc2C2CC(c3cccs3)=NN2C(=O)CCC(=O)O)cc1 (centres undefined) | inconclusive: 79.4 µM [inhibitor, single point] | –
69 | COc1ccc(Cl)cc1NC(=O)CSc1nc(-c2ccco2)cc(C(F)(F)F)n1 | inactive | –
